In the data set the test system is ATP. Nature of the data set: switch fluorescence ratio, 500 uM ATP over buffer (Cy3 cluster intensity, sum of 5 cycles each) (fold (ratio)); higher = stronger signal-on switching upon ATP binding; sequences stand for … in TCGTCGGCAGCGTCAGATGTGTATAAGAGACAGTTTTTTTTTTTTTTTTTTTTTTTTT…TC. The note with it: aptamer strand: ATP DNA aptamer (quencher-CACCTGGGGGAGTATTGCGGAGGAAGG + anchor), 100 nM annealed; ATP concentration: 500 uM; one replicate. The procedure, abridged:
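After annealing to 100 nM quencher-labelled ATP aptamer, Cy3-labelled switching-strand clusters on a modified Illumina MiSeq flow-cell were imaged in selection buffer. A second image followed after 15 min with 500 uM ATP at 22 °C, and five such buffer/ATP cycles were done, each separated by NaOH stripping and re-annealing. The fluorescence ratio, averaged per switch-domain sequence, is summed target-cycle over summed buffer-cycle Cy3 intensity per cluster, with clusters outside 100-1000 RFU excluded.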

Sequences with one replicate were seen in a single cluster, so their values are uncertain.
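Also: ATP exposure 15 min at 22 °C before imaging.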

As for GATTAGGACC, the switch fluorescence ratio was determined as 0.978. Next, TCATATTCT: 1.03; GGGTCTTGTT: 1. As for GGTGTCTAGG, the switch fluorescence ratio stood at 1. Take GAAGACATTA: the switch fluorescence ratio came to 1.01. As for TATCACCAAA, the switch fluorescence ratio was found to be 1.02. Next, ACCTGGTCCG: 1.23; CGGCCCTCTG: 1.01.

For GTCTGGGATC, the switch fluorescence ratio was 0.993.

Turning to TGCCCGTAGC, the switch fluorescence ratio was 1.18.

Regarding CACAAAGGGC, the switch fluorescence ratio came to 1. Turning to ATTAAATCAA, the switch fluorescence ratio was determined as 1.01. As to GAGTCTGATC, the switch fluorescence ratio is 1.02. For ACGGGCTGGT the value was 1.03; for TGATCGTCTA, 1.01; for ATGCAATGT, 1.12. Next, CGGCTCCTGG: 1.03; GATCCATAG: 0.991; TCGCATGCGG: 0.978. Regarding ATTTGATGCC, the switch fluorescence ratio is 1.06. Next, CAGAGCTGTG: 1.02. Next, GCGCATAAT: 1; AGCATCTAA: 0.996; GCCCGTACTA: 1.04. For TCGTGATTCG the value was 1.03; for AACGGTTT, 0.971. For AGGTGTTCGT, the switch fluorescence ratio came out at 0.996. Next, TAAGCTTTGC: 0.948; AATAGGATCA: 0.984. As to GGGCCAAGGC, the switch fluorescence ratio was 0.997. For GAATTGCTTT the value was 1.03; for CGTGGTCGGG, 0.963. Next, TTCCTTAAAT: 1.02; CTCTTGTTGG: 0.997; ATCCCAGCAG: 1.49. For CACTTTACCT the value was 1.33. Regarding TTAAAATGAA, the switch fluorescence ratio was determined as 0.992.

For GGGTTGCGGG, the switch fluorescence ratio came out at 1.03. Next, TAGTGTAT: 1.05; AATGATTATG: 1.01; TTCCCGGGAA: 1.06. For TCTTGGATCG the value was 1.03; for CGCGGGTTTA, 1.04; for GTATATTGGT, 0.984.

With CGTGATGGAA, the switch fluorescence ratio amounted to 1.

As to TTGGAAATCA, the switch fluorescence ratio amounted to 0.951.

Turning to TTACGGGATC, the switch fluorescence ratio is 1.02. For TGGAACCGTT the value was 0.995; for CCTACCACAT, 1.66; for GTCGGAAGG, 0.977. Turning to CCACCCTAGA, the switch fluorescence ratio is 1.08. AAAGTGGTG: the switch fluorescence ratio was determined as 0.979. For AATAGCGTAT the value was 0.997; for TATGGGTCTG, 1.05; for AGTGGTGGCA, 1.01. For TCTAACCGAG the value was 1.15.

(Values after the supplement of paper PMC10126150.)
